Here are results for ten proteins from the supplement of paper PMC11876631.

The chains are these.
B1: argC F77Q (protein)
chain: MLNTLIVGASGYAGAELVTYVNRHPHMNITALTVSAQSNDAGKLISDLHPQLKGIVDLPLQPMSDISEFSPGVDVVQLATAHEVSHDLAPQFLEAGCVVFDLSGAFRVNDATFYEKYYGFTHQYPELLEQAAYGLAEWCGNKLKEANLIAVPGCYPTAAQLALKPLIDADLLDLNQWPVINATSGVSGAGRKAAISNSFCEVSLQPYGVFTHRHQPEIATHLGADVIFTPHLGNFPRGILETITCRLKSGVTQAQVAQVLQQAYAHKPLVRLYDKGVPALKNVVGLPFCDIGFAVQGEHLIIVATEDNLLKGAAAQAVQCANIRFGYAETQSLI
B2: ftsY I400W (protein)
chain: MAKEKKRGFFSWLGFGQKEQTPEKETEVQNEQPVVEEIVQAQEPVKASEQAVEEQPQAHTEAEAETFAADVVEVTEQVAESEKAQPEAEVVAQPEPVVEETPEPVAIEREELPLPEDVNAEAVSPEEWQAEAETVEIVEAAEEEAAKEEITDEELETALAAEAAEEAVMVVPPAEEEQPVEEIAQEQEKPTKEGFFARLKRSLLKTKENLGSGFISLFRGKKIDDDLFEELEEQLLIADVGVETTRKIITNLTEGASRKQLRDAEALYGLLKEEMGEILAKVDEPLNVEGKAPFVILMVGVNGVGKTTTIGKLARQFEQQGKSVMLAAGDTFRAAAVEQLQVWGQRNNIPVIAQHTGADSASVIFDAIQAAKARNIDVLIADTAGRLQNKSHLMEELKKWVRVMKKLDVEAPHEVMLTIDASTGQNAVSQAKLFHEAVGLTGITLTKLDGTAKGGVIFSVADQFGIPIRYIGVGERIEDLRPFKADDFIEALFARED
B3: ftsY F458A (protein)
chain: B2 chain with W400I, F458A
B4: ftsY I457A (protein)
chain: B2 chain with W400I, I457A
B5: ftsY I400Q (protein)
chain: B2 chain with W400Q
B6: ftsY I457Q (protein)
chain: B2 chain with W400I, I457Q
B7: ftsY F458P (protein)
chain: B2 chain with W400I, F458P
B8: ftsY I400P (protein)
chain: B2 chain with W400P
B9: ftsY F458W (protein)
chain: B2 chain with W400I, F458W
B10: ftsY I457W (protein)
chain: B2 chain with W400I, I457W

Substitutions are numbered along the chain they refer to. In names and notes the source's numbering stands. ± gives the standard deviation of the averaged measurements. Laboratory Escherichia coli strains with one amino-acid change in an essential protein, pooled on minimal glucose agar with carbenicillin or gentamicin at twice the control MIC (plus kanamycin and chloramphenicol for the plasmids), 48 h. Fold change of barcode share against drug-free plates; higher = less susceptible. Active = above 20 in both replicates (the paper's putatively resistant). '<' = one read or none on drug, '>' = one read or none on a drug-free plate. Shares are relative, so most strains fall below 1 when a few take over. Listed are strains with at least 15 reads on both drug-free plates, and hits; most hits rest on fewer reference reads. Replicate rank correlation about 0.5. Edits are read from barcodes.

The target in one data set is Escherichia coli (laboratory strain). Put plainly: barcode share on antibiotic plates over drug-free plates; higher = less susceptible. The conditions noted are these: antibiotic: carbenicillin; 2× MIC (3.1 µg/mL). How it is done:
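A pool of E. coli strains, each edited to carry one amino-acid change in an essential protein, was grown for 48 h on minimal glucose agar with or without antibiotic; strain barcodes were sequenced; mean of two replicates.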
As for B1, the “fold change of barcode share” value is 0.728 ± 0.024.
Still for that read-out and setting: under B2 stands 0.369 ± 0.21; under B3, 0.329 ± 0.018.
In the case of B4, the “fold change of barcode share” value was determined as 0.448 ± 0.14.
Still for that read-out and setting: under B5 stands 0.172 ± 0.002.
Take B6: the “fold change of barcode share” value is 0.376 ± 0.009.
B7: the “fold change of barcode share” value came out at 0.325 ± 0.084.
On the same count and under the same terms, the same measure for B8: 0.451 ± 0.19; for B9: 0.805 ± 0.69.
Still for that read-out and setting: under B10 stands 0.302 ± 0.026.

The data set is the same for the next values; noted with them: antibiotic: gentamicin; 2× MIC (MIC 0.45 µg/mL).
For the protein B1, the “fold change of barcode share” value is 0.0152 ± 0.013.
The same measure, in the same setting: under B2 stands 0.0192 ± 0.0068; under B3, 0.147 ± 0.096; under B4, 0.0137 ± 0.0062.
As to B5, the “fold change of barcode share” value was under 0.0215.
On the same count and under the same terms, under B6 stands 0.0103 ± 0.0091; under B7, 0.0134 ± 0.016.
Consider B8, for which the “fold change of barcode share” value was under 0.015.
Same read-out and setting: the same measure for B9: 0.00325 ± 0.00027; for B10: 0.0137 ± 0.012.
